Laboratory results reported in PubChem BioAssay AID651568 (National Center for Advancing Translational Sciences (NCATS), 2012).
About 55 (5%) of roughly 1,200 compounds were called active. About 15% were inconclusive and are not listed. Calls follow the shape of the dose curve; as a rule, active = well fitted inhibition curve with a large enough effect; inconclusive = small, poorly fitted or top-dose-only effect; inactive = no such curve, though single readings can be large or run the other way. The list shows a part of the results.

Experiment: qHTS Assay to Find Inhibitors of Chronic Active B-Cell Receptor Signaling: Hit Validation in Renilla Reporter Assay; also: nearly all actives have a fitted effect of over 70% in size
Details: TMD8 IkB-Renilla luciferase reporter, NF-kB signaling; series mostly up to 57.5 µM; activity change, negative = inhibition: at the top concentration
Outline: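 Dual-Glo luminescence read-out of constitutively expressed IkB-Photinus/Renilla luciferase reporters in ABC-DLBCL lines, used to retest primary hits; reporter enzymes differ from the click beetle luciferases used in the primary screen.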
% is scaled to controls: 0 for no effect and ±100 for the full control effect.

Row | Structure (SMILES) | activity change, negative = inhibition
1 | CCOC(=O)Cc1csc(NC(=S)NC(=O)c2ccccc2)n1 | inactive: 4.06%
2 | COC(=O)CCC(=O)NC(=S)Nc1sc(C)c(C)c1C(N)=O | inactive: 4.1%
3 | CC(C)Sc1ccccc1C(=O)Nc1ccc2c(c1)n(C)c(=O)n2C | inactive: 17.2%
4 | CCOC(=O)c1c(C)sc2c1N(C(C)=O)c1cc(Cl)ccc1S2 | inactive: -14.3%
5 | CC1=Nc2cc(C(=O)NCC3CCCO3)ccc2Sc2ccc(C)cc21 (stereo unspecified) | inactive: -2.91%
6 | Cc1nnc(C)n1/N=C/c1cc2ccccc2nc1Cl | inactive: -10.6%
7 | C#CCOc1ccc(C2C3=C(COC3=O)Nc3cc4c(cc32)OCO4)cc1OC (stereo unspecified) | inactive: -16%
8 | COc1cccc(N2CCN(C(=O)c3ccc(CS(=O)c4ccccc4C)o3)CC2)c1 (stereo unspecified) | inactive: -4.07%
9 | NNC(=O)c1[nH]c2ccccc2c1-c1ccccc1 | inactive: -21.4%
10 | CC[C@@H](C)[C@H](NC(=O)CCc1c(C)c2cc3c4c(oc3c(C)c2oc1=O)CCCC4)C(=O)O | inactive: -26.6%
11 | CCN(CC)c1ccc(NC(=O)c2cc(OC)cc(OC)c2)c(C)c1 | inactive: 4.37%
12 | COc1cc2c(c(OC)c1OC)-c1ccc(OC)c(=O)cc1C(NC(C)=O)CC2 (stereo unspecified) | inactive: -16.3%
13 | COC(=O)c1cnc(Oc2ccc(NC(=O)NC(=O)c3c(OC)cccc3OC)cc2)cc1C(F)(F)F | inactive: -0.497%
14 | COc1cc(OC)c2c(c1)OC(=O)CC2c1cc(OC)c(OC)c(OC)c1 (stereo unspecified) | inactive: 2.97%
15 | COc1ccc(C2CC(=O)Oc3cc(OC)c(OC)c(OC)c32)cc1 (stereo unspecified) | inactive: 2.1%
16 | Cc1ccccc1N=Nc1c(C)[nH]n(C(N)=S)c1=O | inactive: -10.4%
17 | CCCCC(=O)NC(=S)Nc1nnn(CCC)n1 | inactive: -0.93%
18 | O=C(O)CCCCCCCCc1cn(Cc2ccc(C(=O)c3ccccc3)cc2)nn1 | inactive: 2.47%
19 | NNC(=O)c1[nH]c2ccc(Cl)cc2c1-c1ccccc1 | inactive: -23.5%
20 | O=C(COc1ccc(C(=O)c2ccccc2)cc1)NCc1ccc(F)cc1 | inactive: -1.09%
21 | Cc1ccccc1NC(=S)NCc1ccc2c(c1)cc(C)n2C | inactive: 3.22%
22 | CCOc1cc(/C=N\NC(N)=O)cc(Br)c1OC(C)C | inactive: -6.49%
23 | Cc1nn(CCC(=O)NNC(=S)NCC(C)C)c(C)c1Br | inactive: 5.3%

Row | Structure (SMILES) | activity change, negative = inhibition
24 | CCCC1=Nc2cc(C(=O)NCCCOCC)ccc2Sc2ccccc21 | inactive: -1.19%
25 | CC1=Nc2cc(C(=O)NC3CCCC3)ccc2Sc2ccc(Cl)cc21 | inactive: -3.91%
26 | COc1cccc(C2NC(=S)NC(C)=C2C(=O)c2ccccc2)c1OC (stereo unspecified) | inactive: -1.68%
27 | COc1cc(NC(=S)NC(=O)c2ccccc2F)ccc1NC(=O)c1ccco1 | inactive: -16.4%
28 | Cc1cc(C)c(C#N)c(SCc2c(F)cccc2[N+](=O)[O-])n1 | inactive: 0.286%
29 | Cc1nc(NC(=S)Nc2ccccc2)sc1C | inactive: 6.17%
30 | CC1=Nc2cc(C(=O)NCc3ccco3)ccc2Sc2ccc(C)cc21 | inactive: 4.54%
31 | C/C(CCC(C)C)=N\NC(=O)COc1ccccc1-c1ccccc1 | inactive: 3.16%
32 | N#Cc1ccccc1NC(=O)c1cccc(COc2ccc(Cl)cc2Cl)c1 | inactive: -2.34%
33 | C=CCOc1ccc(/C=C2\SC(N)=NC2=O)cc1OC | inactive: 1.12%
34 | COc1cc(C(=O)NNC(=O)C2CC=CCC2C(=O)O)cc(OC)c1OC (stereo unspecified) | inactive: -1.78%
35 | Cc1ccc(C(=O)O)cc1NC(=S)NC(=O)C(c1ccccc1)c1ccccc1 | inactive: -23%
36 | CC[C@]12c3[nH]c4cc(CCC(=O)N(C)C)ccc4c3CCN1C(=O)[C@@H](CC(=O)NCCc1ccccn1)C[C@@H]2C(=O)N1CCN(C(=O)C2CC2)CC1 | inactive: -3.84%
37 | COc1ccc(CN2C[C@H]3CCCN3c3cc(Br)ccc3S2(=O)=O)cc1 | inactive: 7.33%
38 | Cc1ccc(OC/C(=N\O)C(C)(C)C)c([N+](=O)[O-])c1 | inactive: 3.16%
39 | CCc1nnc(NC(=S)Nc2ccccc2)s1 | inactive: 1.96%
40 | COc1cc2c(cc1OC)C(c1cc3cc(OC)c(OC)cc3[nH]c1=O)N(C(=O)C1CC1)CC2 (stereo unspecified) | inactive: -6.95%
41 | Oc1c(CN2CCN(c3ccccc3)CC2)cc(Br)c2cccnc12 | inactive: -23.3%
42 | S=C(Nc1ccccc1Cl)N(Cc1ccccc1)Cc1ccccn1 | inactive: 23.3%
43 | Cc1ccccc1C1=NC(C(F)(F)F)(C(F)(F)F)c2c(n(C)c(=O)n(C)c2=O)N1 | inactive: 0.294%
44 | CCc1ccc(N2CC(C(=O)OCC(=O)Nc3ccccc3C)CC2=O)cc1 (stereo unspecified) | inactive: 0.55%
45 | CCC1=Nc2cc(C(=O)NCc3ccco3)ccc2Sc2ccc(Cl)cc21 | inactive: 0.101%
46 | Cn1c(=S)c2[nH]c(SCCN3CCCC3)nc2n(C)c1=O | inactive: 3.68%

Row | Structure (SMILES) | activity change, negative = inhibition
47 | S=C(Nc1ccccc1)c1nc2ccccc2s1 | inactive: 5.84%
48 | Cc1noc(C)c1CSc1ccc2ccccc2n1 | inactive: 9.23%
49 | COc1cc(C(CCN2CCOCC2)c2c(OC)cc(OC)c3c(-c4ccccc4)cc(=O)oc23)cc(OC)c1OC (stereo unspecified) | inactive: -12.5%
50 | COc1ccccc1-c1cc(C(=O)NCCc2ccccc2)no1 | inactive: 1.79%
51 | CCOc1ccc2c(c1)C(C)=CC(C)(C)N2S(=O)(=O)c1ccc(NC(C)=O)cc1 | inactive: 3.79%
52 | CCCCCC1CCC(c2n[nH]c(=S)n2C)CC1 (stereo unspecified) | inactive: 10.6%
53 | Cn1c(=O)[nH]c(=O)c2c1nc(SCC(N)=O)n2Cc1cccc(Br)c1 | inactive: 3.59%
54 | O=C(CSc1ncn[nH]1)Nc1nnc(-c2ccccc2)s1 | inactive: -24.2%
55 | O=C(CN1CCC(NC(=O)Nc2ccc(F)cc2)CC1)Nc1ccccc1[N+](=O)[O-] | inactive: -17.4%
56 | CCc1ccc2oc(=O)cc(CN3CCCCC3C)c2c1 (stereo unspecified) | inactive: -4%
57 | Nc1ncnc2c1ncn2[C@@H]1O[C@H](CNC(=O)[C@@H]2CCCN2S(=O)(=O)c2ccc(F)cc2)[C@@H](O)[C@H]1O | inactive: 0.718%
58 | O=C(CSc1ncccc1C(=O)O)c1ccc2ccccc2c1 | inactive: -0.336%
59 | COc1cc(C(=O)NC2CCN(Cc3nnnn3Cc3ccc(F)cc3)CC2)cc(OC)c1OC | inactive: 4.76%
60 | Cc1nnc2sc(-c3csc4c3CCCC4)nn12 | inactive: -16.9%
61 | CCc1nc2ccccc2c(C(=O)OCc2nc3ccccc3c(=O)[nH]2)c1C | inactive: -0.954%
62 | CCc1nnc(NC(=O)CSc2nnc(-c3ccccc3NC(=O)c3ccccc3)o2)s1 | inactive: -4.69%
63 | COc1cc(C2=NOC(C(=O)NCc3ccc(F)cc3)C2)cc(OC)c1OC (stereo unspecified) | inactive: -9.62%
64 | COc1ccc(CCCC(=O)N/N=C/c2cccc(OC)c2O)cc1C | inactive: -12.9%
65 | O=c1c2c(-c3ccco3)csc2nc(SCc2cn3cccnc3n2)n1-c1ccccc1 | inactive: -3.42%
66 | CNc1nc(N)c([N+](=O)[O-])c(NCc2ccccc2)n1 | inactive: 7.74%
67 | COC(=O)c1cccc(-n2sc3ccccc3c2=O)c1 | inactive: -19%
68 | CC(=O)c1ccc(Oc2cc(C)nc(-n3nc(C)cc3C)n2)cc1 | inactive: -4.03%
69 | O=C(Cc1n[nH]c(=O)c2ccccc12)OCC(=O)c1ccc2c(c1)OCCO2 | inactive: 2.17%

Row | Structure (SMILES) | activity change, negative = inhibition
70 | CCCNc1ccc(C(=O)OCC)cc1[N+](=O)[O-] | inactive: -1.49%
71 | CCN(CC)c1ccc2c(cc1=O)[C@@H](NC)CCc1cc(OC)c(OC)c(OC)c1-2 | inactive: -30%
72 | Cc1ccccc1-c1nc2c3ccccc3nc(=S)n2[nH]1 | inactive: -19%
73 | O=C(Cc1ccc(-n2c(=O)c3ccccc3n(Cc3ccc(F)cc3)c2=O)cc1)NCC1CCCO1 (stereo unspecified) | inactive: -25.1%
74 | CCOC(=O)C1=C(C)NC(C)=C(C(=O)OCC)C1C(=O)OCC(=O)NCc1ccccc1OC | inactive: 20.3%
75 | CCOC(=O)C(C)Oc1cccc2c(=O)n(CC(=O)NCc3ccc(F)cc3)ccc12 (stereo unspecified) | inactive: 1.17%
76 | CCN1C(=O)c2cccc3c(NC(=O)c4ccc(OC)c(OC)c4)ccc1c23 | inactive: 2.97%
77 | C=CCNC(=S)N/N=C/c1ccc(C)cc1C | inactive: -2.71%
78 | CCN(CC)S(=O)(=O)c1ccc(C(=O)NCCSc2c[nH]c3ccccc23)cc1 | inactive: -1.06%
79 | NNC(=O)c1cc2cc(OC(F)(F)F)ccc2[nH]1 | inactive: -3.97%
80 | CC(=O)OCC(=O)[C@@]1(O)CC[C@H]2[C@@H]3CCC4=CC(=O)C=C[C@]4(C)[C@H]3[C@@H](O)C[C@@]21C | inactive: 0.226%
81 | Cc1cn(-c2cccnc2)c(C)c1CNC[C@H]1O[C@@H](n2cnc3c(N)ncnc32)[C@H](O)[C@@H]1O | inactive: 0.99%
82 | O=[N+]([O-])c1cc(F)c2cccnc2c1O | inactive: -24.3%
83 | CCOc1ccc(NC(=S)N(CCc2c(C)[nH]c3ccccc23)Cc2cccnc2)cc1 | inactive: 17.2%
84 | CNC(=O)c1cccc(NC(=O)C(C)c2ccc3cc(OC)ccc3c2)c1 (stereo unspecified) | inactive: -13.1%
85 | CCc1c(C)nc(SCCOc2ccc(OC)cc2)[nH]c1=O | inactive: 3.08%
86 | CC(=O)Nc1ccc(S(=O)(=O)NCC(=O)OC(C)c2ccccc2Cl)cc1 (stereo unspecified) | inactive: 12.7%
87 | Cc1ccc(S(=O)(=O)Nc2cccc(-c3ccc4nncn4n3)c2)cc1 | inactive: 35.7%
88 | COc1cc(OC)cc(C(=O)NCc2cc(C)nc3ccccc23)c1 | inactive: -1.18%
89 | O=[N+]([O-])c1ccc(O)c2ncccc12 | inactive: -22.6%
90 | CCOC(=O)C(C)Oc1cccc2c(=O)n(CC(=O)NCc3ccc4c(c3)OCO4)ccc12 (stereo unspecified) | inactive: -0.0774%
91 | Cc1ccc(OCCN2C(=O)C(=O)c3cc(C)ccc32)cc1 | inactive: -29.2%
92 | O=C(NC(=S)Nc1cccc(F)c1)c1cccc([N+](=O)[O-])c1 | inactive: 21.1%

Row | Structure (SMILES) | activity change, negative = inhibition
93 | Cc1ccc(CCC(=O)Nc2ncc(Cc3cccc(Cl)c3Cl)s2)o1 | inactive: -12%
94 | CCCc1nnc(NC(=S)Nc2ccccc2)s1 | inactive: -2.24%
95 | Cc1cc(C(=O)NN)c2cc(Br)ccc2n1 | inactive: -7.79%
96 | O=C1N/C(=N/N=C/c2ccccc2O)SC1Cc1ccc(F)cc1 (stereo unspecified) | inactive: -10.5%
97 | CCOc1ccc2[nH]c(C(=O)N/N=C/c3ccc(OC)cc3)cc2c1 | inactive: -1.58%
98 | Cc1ccc(N(C)S(=O)(=O)c2ccc(-c3cnc(C4CC4)o3)cc2)cc1 | inactive: -14.6%
99 | O=C(CNC(=O)c1ccco1)N=Nc1c(O)n(CCc2ccccc2)c2ccccc12 | inactive: -27.6%
100 | COc1cc(OC)cc(-c2cc3cc4c(cc3cn2)OCO4)c1 | inactive: -4.56%
101 | CCn1c(=S)[nH]c2cc(S(=O)(=O)N3CCOCC3)ccc21 | inactive: 0.373%
102 | CCOC(=O)c1[nH]c(C)c(C(=O)c2ccc(C)cc2)c1C | inactive: 1.19%
103 | COc1ccc(OCC(O)CN2CCN(c3ccccc3)CC2)cc1 (stereo unspecified) | inactive: -3.59%
104 | Cc1ccc(S(=O)(=O)n2cc(-c3ccccc3)c3ccccc32)cc1 | inactive: 4.15%
105 | Cc1ccc2nc(SCC(=O)Nc3cc(C(F)(F)F)ccc3N3CCOCC3)[nH]c2c1 | inactive: 0.461%
106 | COC(=O)CSC1=C(C#N)C(c2ccc(C)o2)CC(=O)N1 (stereo unspecified) | inactive: -14.8%
107 | CCN(CC)S(=O)(=O)c1ccc2c(c1)c(=O)c(C(=O)NCCc1ccc(OC)c(OC)c1)cn2C | inactive: 50%
108 | CCOC(=O)C(NCc1ccccc1)(NC(=O)c1ccccc1)C(F)(F)F (stereo unspecified) | inactive: 11.7%
109 | CC/C(=N/Nc1ccc(Cl)cc1)c1cnnc(SC)n1 | inactive: 3.12%
110 | Cc1cc(/C=C(\C#N)C(=O)N2CCCCC2)cc(C)c1O | inactive: 5.45%
111 | C/C(=N\NC(=O)COc1ccccc1-c1ccccc1)c1ccccn1 | inactive: -4.14%
